Results taken from PubChem BioAssay AID686978 (National Center for Advancing Translational Sciences (NCATS), 2013).
Hit rate of the full screen: of about 420,000 compounds, about 64,000 (15%) were called active. The shares of active, inactive and inconclusive entries below differ from those in the screen. Calls come from the whole dose curve; as a rule, active = well fitted inhibition curve with a large enough effect; inconclusive = small, poorly fitted or top-dose-only effect; inactive = flat fitted curve, though single readings scatter. Potencies of inconclusive entries are left out as doubtful fits.

Test: qHTS for Inhibitors of human tyrosyl-DNA phosphodiesterase 1 (TDP1): qHTS in cells in absence of CPT; note: nearly all actives have a fitted effect of over 55% in size
Conditions: DT40 Tdp1-/- hTDP1 cells, no CPT, ATP luminescence, 48 h; activity change, negative = growth inhibition: at 46.2 µM (top of the series) unless noted
Outline: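 Chicken DT40 Tdp1-/- cells stably complemented with human TDP1 were seeded at 400 cells/well with DMSO in place of 20 nM camptothecin. After compound pinning, cells grew at least 48 hr at 37 °C; viability read by CellTiter-Glo luminescence.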
% is set by controls: 0 for no effect and ±100 for the full control effect; potency is the fitted concentration of half-maximal effect; tags give direction and shape of the fitted curve.

Row | Structure (SMILES) | activity change, negative = growth inhibition | Potency
1 | C/C(=N\NC(=O)c1ccc(C)cc1C)c1ccc(-n2ccnc2)cc1 | inactive: -10.6% | –
2 | CC1CC(NC(=O)/C(C#N)=C/c2ccc[nH]2)CC(C)(C)C1 (configuration not stated) | – | inconclusive [inhibitor, partial curve, poor fit]
3 | O=C(c1cccc(Cl)c1)N1CCC2CC1c1cc(N3CCOCC3)ccc12 (configuration not stated) | – | inconclusive [inhibitor, single point]
4 | CCOC(=O)C1CCN(C(=O)Cn2nc(C)n3c(cc4c(OC)cccc43)c2=O)CC1 | inactive: -15.6% | –
5 | CC(=O)c1ccccc1NC(=O)c1cc(S(=O)(=O)N2CCOCC2)ccc1N1CCCC1 | – | active: 20.6 µM
6 | Cc1nc(-c2ccccc2)nc2sc(C(=O)c3ccc(F)cc3)c(N)c12 | – | inconclusive [inhibitor, single point]
7 | Oc1ccccc1CN1CCN(C(c2ccccc2)c2ccccc2)CC1 | – | active: 16.4 µM
8 | Cc1ccc(/C=C/C(=O)NCCCn2ccnc2)cc1 | – | inconclusive [inhibitor, single point]
9 | CC(=O)COc1ccc2c3c(c(=O)oc2c1C)CCCCC3 | – | inconclusive [inhibitor, single point]
10 | CCC1CN(C(=O)NCc2ccc(F)cc2)c2cc(C)ccc2O1 (configuration not stated) | – | inconclusive [inhibitor, single point]
11 | Cc1cc(C)nc(SCc2ccc(C(=O)N/N=C/C3CCCCC3)cc2)n1 | inactive: 1.32% | –
12 | CCOCCOC(=O)Cn1cnc2scc(-c3ccc(C)cc3)c2c1=O | inactive: 0.612% | –
13 | COc1ccc(OC)c(C2CC(=O)C3=C(C2)NC(=O)CC3c2ccc(O)c(OC)c2)c1 (configuration not stated) | – | inconclusive [inhibitor, partial curve]
14 | CC(C)(C)c1ccccc1NC(=O)c1cc(-c2ccncc2)nc2ccccc12 | – | inconclusive [inhibitor, single point]
15 | CC(C)n1cc(/C=N/NC(=O)COc2cccc3cccnc23)c2ccccc21 | – | inconclusive [inhibitor, single point]
16 | COC(=O)CNC(=O)C(=O)OC | inactive: -2.41% [at 4.12 µM] | –
17 | O=C(COc1cc(Cl)c(Cl)cc1Cl)NC(=O)NC1CCCC1 | – | inconclusive [inhibitor, single point]
18 | CCOc1ccc(N(CC(=O)NC2CCC(C)CC2)S(=O)(=O)c2c(C)noc2C)cc1 (configuration not stated) | – | inconclusive [inhibitor, single point]
19 | COCCNC(=O)C1CCCN(C(=O)c2ccc(OC)c(F)c2)CC1 (configuration not stated) | inactive: 5.99% | –

Row | Structure (SMILES) | activity change, negative = growth inhibition | Potency
20 | Cc1cccc(N(C)S(=O)(=O)c2nnc(NC(=O)C(C)Oc3ccccc3)s2)c1 (configuration not stated) | – | inconclusive [inhibitor, single point]
21 | Cc1c(C(=O)OCc2ccccc2)[nH]c2c1C(=O)CC(c1ccco1)C2 (configuration not stated) | – | active: 0.92 µM
22 | Cc1sc(C(=O)Nc2ccc3ccccc3c2)cc1CC(=O)O | inactive: -0.683% | –
23 | CN(C(=O)CSc1nc2ccccc2c(=O)n1-c1ccccc1Cl)C1CCS(=O)(=O)C1 (configuration not stated) | inconclusive: -36.2% [inhibitor] | –
24 | CCN(CC)S(=O)(=O)c1cccc(NC(=O)c2cc(-c3cccs3)nn2-c2ccccc2)c1 | – | active: 14.6 µM
25 | CCc1c(C)nc(N2CCN(c3ccc(Cl)cc3)CC2)[nH]c1=O | – | inconclusive [inhibitor, full curve, poor fit]
26 | NCCCNc1ccc(Br)cn1 | – | inconclusive [inhibitor, single point]
27 | Cc1nn(-c2ccccc2)c(C)c1C(=O)OCC(=O)NC12CC3CC(CC(C3)C1)C2 | – | active: 23.1 µM
28 | COc1ccc(OC)c(CCNC(=O)c2ccc3c(c2)N(Cc2ccccc2)CCS3)c1 | – | active: 16.4 µM
29 | COc1cc(C(C)=O)ccc1OCC(=O)Nc1ccccc1N1CCCCC1 | – | active: 8.2 µM
30 | O=C(NCC1CCCO1)c1cc2n(n1)C(C(F)(F)F)CC(c1ccc(F)cc1)N2 (configuration not stated) | – | inconclusive [inhibitor, partial curve]
31 | Cc1cc(C)n(-c2ncnc3ccccc23)n1 | inactive: 7.34% | –
32 | Cc1ccccc1OC1(C)CCN(Cc2ccc3ccccc3c2)C1 (configuration not stated) | – | active: 16.4 µM
33 | O=C(NCc1nc2ccccc2[nH]1)c1cccs1 | inactive: 0.313% | –
34 | CC1=C(C(=O)N2CCCC(N3CCN(c4cccc(Cl)c4)CC3)C2)OCCO1 (configuration not stated) | – | inconclusive [inhibitor, single point]
35 | Cc1ccc2nc(NC(=O)COC(=O)c3cccnc3)sc2c1 | inactive: -20.7% | –
36 | c1ccc(NCc2cccc3ccccc23)nc1 | inactive: 2.55% | –
37 | Cc1ccc(CCNC(=O)C2CC(=O)N(CCc3ccc(C)cc3)C2)cc1 (configuration not stated) | inactive: 1.81% | –
